In the supplement of paper PMC3334620:
In all, about 33,000 sequences were measured (“E-score (-0.5 to 0.5)”: median about -0.04, highest 2% from about 0.36 on). Some of the results follow.

Each sequence was assayed against T1, Hmlalpha2 (UniProt P0CY09) (assay: PBM E-score (8-mer binding enrichment) (E-score (-0.5 to 0.5)); higher = stronger / more preferred TF binding; most listed sequences are background and not binding sites). Conditions: protein concentration: 200 nM; construct: GST-full length.
T1 sequence: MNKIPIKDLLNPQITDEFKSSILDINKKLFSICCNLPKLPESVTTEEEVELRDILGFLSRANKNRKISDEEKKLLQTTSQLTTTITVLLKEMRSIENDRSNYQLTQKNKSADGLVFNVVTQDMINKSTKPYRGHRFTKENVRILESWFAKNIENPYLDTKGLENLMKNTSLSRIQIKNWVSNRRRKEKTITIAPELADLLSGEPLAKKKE
Summary of the method: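 PURExpress in vitro transcription/translation supplied GST-tagged yeast transcription factors, either full-length or DNA-binding domain. Applied at about 100-200 nM to universal all-10-mer Agilent arrays double-stranded by primer extension, the bound protein was detected with fluorescent anti-GST. E-scores, modified Wilcoxon-Mann-Whitney statistics, were given by the Universal PBM Analysis Suite to ungapped eight-base words pooled with their reverse complements after masliner normalisation.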

| Sequence | PBM E-score |
| --- | --- |
| GACTACGC | 0.0838 |
| ATATTTGG | -0.0343 |
| CGATGGAC | 0.0281 |
| AATTCAAC | 0.21 |
| GGGCAGAC | -0.35 |
| CACCGGCC | -0.228 |
| CTCACTGA | -0.208 |
| AATCGGCA | -0.103 |
| CAAAAGAG | -0.199 |
| GGCAGTGA | -0.211 |
| AAAAGTTA | 0.181 |
| GCGTACGC | 0.095 |
| ACTTTCGA | -0.0861 |
| ACACTCAT | 0.23 |
| ACGAAGTC | -0.0726 |
| GCGGCCGC | -0.0941 |
| ACGAAAGG | 0.134 |
| CATGCCCA | -0.146 |
| CCCTAATC | -0.301 |
| ATAAACGA | 0.0891 |
| AGCGTGTG | 0.249 |
| CAACGACG | 0.0642 |
| ACTCTAGA | -0.0977 |
| ATCTTGGA | -0.077 |
| CGAGACAC | -0.108 |

| Sequence | PBM E-score |
| --- | --- |
| GTTGTTTA | 0.34 |
| AGGCCAAC | 0.046 |
| GCATGGAC | 0.0576 |
| CTGAATCA | 0.0147 |
| CAGACCGG | -0.159 |
| ATTGATGC | -0.0476 |
| GCATAACA | 0.307 |
| CGATCGAG | -0.0611 |
| ATATAAAA | 0.191 |
| AGAGGCCG | -0.256 |
| CCGGCACA | -0.211 |
| ACTTATCT | 0.0275 |
| ACGGTTTA | 0.0131 |
| GCTTTTAC | 0.299 |
| GTGAACGA | 0.0671 |
| CACGAGAA | 0.0514 |
| GCGGTTAA | 0.0547 |
| GACCTAGC | -0.0413 |
| CCATCGGA | -0.288 |
| CTCGTGAA | 0.0708 |
| CGTCAGAC | -0.137 |
| AGATTTTC | 0.00766 |
| CACGGCAG | -0.037 |
| GTCTTTTA | 0.112 |
| CGTCCGAA | -0.0411 |

| Sequence | PBM E-score |
| --- | --- |
| AACGGCGC | -0.255 |
| AACGTAAA | 0.325 |
| ATAGGTCC | 0.0522 |
| ATGATGTG | 0.0311 |
| GCAAGTGC | -0.147 |
| AGCCCCTG | -0.221 |
| ATAGAAGG | -0.262 |
| AACCCTAA | -0.0438 |
| AGTGCCCG | -0.115 |
| CTGCGCTC | -0.248 |
| ACGCGTCT | 0.0891 |
| GACGTCAA | 0.171 |
| ATCTTTTA | 0.137 |
| GCACGGGC | -0.259 |
| AAAGCCGT | 0.0037 |
| CTGAATGA | -0.0897 |
| CTAGGAAC | -0.171 |
| CTACAGCC | -0.113 |
| AAAACTGC | 0.0251 |
| CGTGGACA | -0.00462 |
| AACCGTTG | 0.105 |
| CGCATGCG | 0.00712 |
| ACGGTCGA | -0.0835 |
| ACAGGGCC | -0.052 |
| CCCACTTA | 0.00418 |

| Sequence | PBM E-score |
| --- | --- |
| CGCAACAG | 0.041 |
| CCAGATCG | -0.21 |
| ACATAGAA | 0.267 |
| ATTTTCAA | 0.047 |
| CAAACTAC | 0.0558 |
| AGCTGCCA | -0.134 |
| GCTCCCAC | -0.216 |
| CGTTCCGC | 0.00967 |
| CTGGATTC | -0.214 |
| ACTTCCTC | -0.19 |
| CAGCCCTG | -0.0988 |
| AAGACAAA | 0.0838 |
| CAGCGGAC | -0.139 |
| ATTACAAC | 0.4 |
| ATACCTCA | -0.072 |
| CACTAAAG | -0.0746 |
| CTTTGATC | -0.194 |
| TAAAGGTA | 0.0933 |
| ATTGCTCA | -0.00957 |
| CAATCCGG | -0.173 |
| CAGCTACC | -0.168 |
| ATTTGCTC | -0.155 |
| AGATTGTG | 0.0599 |
| TCCCGTAA | -0.0167 |
| CGACGCAG | 0.083 |

| Sequence | PBM E-score |
| --- | --- |
| AGAGAAAG | -0.18 |
| GCTGAAGA | -0.152 |
| AACTGCAC | 0.0702 |
| AACAGCTG | -0.00651 |
| CAACTGTA | 0.0556 |
| CCACTTCG | -0.23 |
| ATTGTTTC | 0.0454 |
| CCCGAGGA | -0.237 |
| ATGTCAGG | 0.117 |
| CTGGTTTA | 0.0556 |
| CACCTAAC | -0.14 |
| TCTCGACA | 0.261 |
| AGTACACA | 0.387 |
| GCTTTCGA | -0.124 |
| CTTGTCTC | -0.192 |
| CAAGATTA | 0.104 |
| CAAAAGAA | 0.121 |
| CTCTGTGC | -0.246 |
| CCATGCTC | -0.13 |
| AAAGCCCC | -0.271 |
| CAAAGCAG | 0.0305 |
| AGGAGGAG | -0.218 |
| CTTTGATA | -0.0072 |
| CGGTGTTC | -0.0917 |
| ACTTATAT | 0.212 |

| Sequence | PBM E-score |
| --- | --- |
| ATCTTTAA | 0.109 |
| ACAGGCGT | -0.058 |
| AGGGGCGC | -0.172 |
| AAGGAGCC | -0.289 |
| AAACTTTC | -0.132 |
| ATCAGAGG | -0.126 |
| ATTAATGA | 0.0848 |
| ACGTGAGG | -0.127 |
| AAACAATC | 0.131 |
| ATACATGG | 0.451 |
| CAATCCCA | -0.306 |
| CGCTTGAA | 0.133 |
| GCTCACAC | 0.00037 |
| AGGCGAAT | -0.0424 |
| GGTACGAA | -0.0157 |
| ATGCTGGG | -0.0354 |
| GAGATGCA | -0.00777 |
| ACCAGTCG | 0.0992 |
| AATTTACG | 0.272 |
| AAGTCGGC | -0.134 |
| CAGAGAAA | 0.0278 |
| ATCGTGTC | 0.358 |
| GTTAGTTA | 0.306 |
| AATAGATG | 0.148 |
| CGTGCTGC | -0.0508 |

| Sequence | PBM E-score |
| --- | --- |
| ACACTCGA | 0.0872 |
| GCCGAGCC | -0.127 |
| CACTGTCC | -0.0263 |
| CTCTCCGC | -0.0537 |
| CATTTGAA | -0.0158 |
| CTGCAACC | -0.291 |
| AACTGATA | 0.0148 |
| CCCAGCCG | -0.369 |
| GTACTTTA | 0.163 |
| TAGTGAAA | 0.0195 |
| CCCTAGGC | -0.231 |
| GGACCTTA | -0.238 |
| CGTACTAG | 0.089 |
| CTACCCGA | -0.0897 |
| ATGACCGA | -0.152 |
| AGAGGCGG | -0.231 |
| CGGGCACC | -0.182 |
| AAACTCTG | 0.0965 |
| GGTACCAA | -0.131 |
| ATTTTCTA | 0.106 |
| AAAAGTTC | 0.0929 |
| TATACCCA | -0.175 |
